Data from the supplement of paper PMC3334620.
Over roughly 33,000 sequences, “E-score (-0.5 to 0.5)” has its median near -0.012; the highest 2% begin near 0.29. The list shows a part of the results.

Each sequence was assayed against T1, Ybr033w (UniProt P38073) (assay: PBM E-score (8-mer binding enrichment) (E-score (-0.5 to 0.5)); higher = stronger / more preferred TF binding; most listed sequences are background and not binding sites). Settings: protein concentration: 200 nM; construct: GST-full length.
T1 sequence: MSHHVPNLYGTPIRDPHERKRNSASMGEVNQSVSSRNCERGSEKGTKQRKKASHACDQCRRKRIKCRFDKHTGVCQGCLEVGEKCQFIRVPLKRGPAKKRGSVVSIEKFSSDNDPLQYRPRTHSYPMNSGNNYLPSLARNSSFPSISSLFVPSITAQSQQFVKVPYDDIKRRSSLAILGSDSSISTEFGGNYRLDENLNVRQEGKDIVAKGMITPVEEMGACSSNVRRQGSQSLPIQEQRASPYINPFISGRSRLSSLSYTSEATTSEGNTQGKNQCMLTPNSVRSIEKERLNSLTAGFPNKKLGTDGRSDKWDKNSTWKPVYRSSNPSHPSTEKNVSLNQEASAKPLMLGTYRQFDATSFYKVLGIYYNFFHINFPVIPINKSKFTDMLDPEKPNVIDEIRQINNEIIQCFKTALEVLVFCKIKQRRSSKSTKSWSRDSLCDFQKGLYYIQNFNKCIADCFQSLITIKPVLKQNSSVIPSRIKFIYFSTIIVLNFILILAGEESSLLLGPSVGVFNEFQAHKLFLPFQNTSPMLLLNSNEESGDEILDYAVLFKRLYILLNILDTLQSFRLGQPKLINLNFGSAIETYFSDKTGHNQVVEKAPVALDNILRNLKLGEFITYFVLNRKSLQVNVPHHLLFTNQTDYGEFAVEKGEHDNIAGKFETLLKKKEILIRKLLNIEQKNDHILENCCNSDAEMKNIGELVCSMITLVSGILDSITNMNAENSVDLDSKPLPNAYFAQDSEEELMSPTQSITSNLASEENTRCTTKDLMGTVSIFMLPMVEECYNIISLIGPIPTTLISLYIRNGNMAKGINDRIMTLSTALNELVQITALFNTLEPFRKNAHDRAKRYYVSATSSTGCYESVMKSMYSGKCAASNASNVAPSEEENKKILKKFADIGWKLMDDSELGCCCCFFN
Method: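 Universal 'all 10-mer' protein binding microarrays (Agilent AMADID 015681) probed with GST-tagged S. cerevisiae TFs (full-length or DBD) made by in vitro transcription/translation (PURExpress), about 100-200 nM. Bound TF was detected with fluorescent anti-GST. Each ungapped 8-mer (which stands for itself and its reverse complement) is scored by the PBM enrichment score (E-score), a modified Wilcoxon-Mann-Whitney statistic from -0.5 to +0.5, computed with the Universal PBM Analysis Suite. Scale: above 0.35 generally sequence-specific binding.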

| Sequence | PBM E-score |
| --- | --- |
| AAGTGATA | 0.0674 |
| TAATTGGA | 0.242 |
| ACCTCAAT | 0.0334 |
| CGATCAGA | -0.0631 |
| CGAATATA | 0.156 |
| AGTACTTG | 0.0907 |
| CTCCAGGA | -0.141 |
| GCCGATAA | -0.0542 |
| CGGGCACA | -0.197 |
| AACATGTT | 0.144 |
| CACGGAGA | -0.0267 |
| TAAAATCA | 0.274 |
| CGACCGCC | -0.161 |
| CGGGGCGC | -0.311 |
| ACGGCGGG | -0.0856 |
| GGAGCAAA | 0.0274 |
| TTCAGAAA | 0.0979 |
| CAAGCCTC | -0.166 |
| CCAAACCC | -0.0187 |
| ATGTAATG | 0.263 |
| AACAGGCC | -0.187 |
| GTTTCCAA | -0.00959 |
| ATAGGATA | 0.104 |
| ATGCGCAG | -0.0878 |
| GGGTCAAA | 0.0144 |

| Sequence | PBM E-score |
| --- | --- |
| AGTCCCTA | -0.128 |
| ACGTATAG | -0.0583 |
| GACTAAAA | 0.0881 |
| AACTTACC | 0.126 |
| CTAACAAC | 0.0894 |
| AAATTCTA | 0.217 |
| CCGGTATA | 0.00427 |
| ACGGATCA | 0.236 |
| AGTCAATA | 0.169 |
| AGCGGCGA | -0.161 |
| GCTTTGCC | -0.227 |
| GCTTCCAA | 0.0624 |
| CCCGCACA | -0.0799 |
| AAGGTTGT | 0.017 |
| TTAACTAA | 0.274 |
| TCCCCACA | -0.218 |
| GCAAAGTA | 0.113 |
| AACCTGGG | -0.324 |
| GGGTTCTA | -0.097 |
| AAAGCTTG | 0.147 |
| AGTGAGGA | -0.0172 |
| AAAAGCCC | -0.113 |
| CCTTACCC | -0.172 |
| AATACCCT | 0.0217 |
| CATACGAG | 0.0952 |

| Sequence | PBM E-score |
| --- | --- |
| CTTCTATA | 0.166 |
| GCGCAGGA | -0.0732 |
| TCAGCTCA | -0.0122 |
| CTGTTCAC | -0.103 |
| CATCAATG | 0.00414 |
| CACTGACA | -0.144 |
| AAAGTCTG | 0.0631 |
| CTCCGGTA | -0.029 |
| ACACCTGA | -0.0619 |
| ACAGGCAG | -0.0237 |
| AAGGAATC | 0.0309 |
| GTTAGCGA | 0.202 |
| ATGCTTCC | -0.0289 |
| ATTACCCG | -0.0141 |
| CTCCGCTC | -0.0252 |
| ACACGGCA | -0.162 |
| CCGGTGGC | -0.245 |
| AAGACGGT | -0.237 |
| AGCCTCAA | -0.00582 |
| GCCTTCTA | -0.0832 |
| ACCTTATC | 0.0619 |
| CCCACCCG | 0.0327 |
| AACTTCGT | 0.167 |
| ACCCAATG | -0.0343 |
| ACGGCATC | -0.18 |

| Sequence | PBM E-score |
| --- | --- |
| ATGTACTC | 0.102 |
| GTTTTTGA | 0.225 |
| GTTGTGCA | -0.122 |
| GCGGACTA | -0.0323 |
| CGAATTAG | 0.0793 |
| GGGTATAC | -0.0522 |
| CACCTTCG | -0.0183 |
| TCGCTGAA | 0.0818 |
| CGCACCAC | -0.0233 |
| CTACTTCA | 0.0359 |
| AACGTGCG | -0.105 |
| ATAAGTGG | 0.224 |
| AGGCAACA | -0.0891 |
| TCGCACAA | 0.0552 |
| AGGCGGAA | 0.237 |
| GGGCGGTA | -0.279 |
| ATGTAGGC | -0.105 |
| ATACATTG | 0.124 |
| CCTCTACG | -0.183 |
| GCAGATCA | -0.115 |
| AATTACAC | 0.0688 |
| ATCGTATA | 0.133 |
| CAAGTGCA | -0.0375 |
| AAACCAAC | 0.173 |
| ATTATAGG | 0.186 |

| Sequence | PBM E-score |
| --- | --- |
| ATGGCGGC | -0.137 |
| ACTGACCA | -0.132 |
| CAATAAGG | -0.0724 |
| AAACCTAT | 0.163 |
| GCAATTAC | -0.0405 |
| TAATCAAA | 0.258 |
| ACACCAAT | 0.0734 |
| CCTCCGGC | -0.17 |
| ACCAGGAT | 0.195 |
| TCCTGACA | 0.0189 |
| CTATATGA | 0.209 |
| GGTTGAGA | 0.00808 |
| TAAAAAAA | 0.241 |
| ACTGTACA | -0.0895 |
| AGCGTGTC | -0.17 |
| CACGCCGC | -0.185 |
| CGCCGACA | -0.209 |
| ACTTCTAC | 0.0557 |
| TATCTGGA | 0.0261 |
| CGGTGTGC | -0.216 |
| ACGGCTTG | -0.0473 |
| ATTCCTAG | 0.147 |
| CTATATAA | 0.152 |
| CAGCCAAC | -0.0719 |
| CGGACCCA | -0.204 |

| Sequence | PBM E-score |
| --- | --- |
| AGCGGTAT | -0.00079 |
| CAGAACTG | 0.178 |
| AATATTCT | 0.248 |
| AACGTGAG | -0.0277 |
| AAGGCAGG | -0.196 |
| GTGCATCA | 0.0839 |
| GGCAGCTA | 0.0745 |
| AGAGCGTC | -0.081 |
| AGGTCAAT | -0.0294 |
| ATTCAGGC | -0.0158 |
| CCAACCCA | -0.186 |
| ACGACCAT | -0.108 |
| CCACGGTC | -0.326 |
| GGCGCTAC | -0.317 |
| AAAGGCGA | -0.0919 |
| CGGATCGA | -0.0379 |
| ACACGGTG | 0.00661 |
| ATCTAGGA | 0.084 |
| ATGATAAG | 0.0206 |
| AATAAGGT | -0.126 |
| ACAAGCGT | 0.0181 |
| ATCTTTAG | -0.0104 |
| ACAGCGAT | -0.0984 |
| CGATGACC | -0.0825 |
| CGTCCTGC | -0.157 |

| Sequence | PBM E-score |
| --- | --- |
| CCGATGAC | -0.126 |
| AGTCGCGC | 0.101 |
| CCACTCGG | -0.12 |
| TATACGCA | 0.162 |
| CAAACAGA | 0.153 |
| ATTCCGCC | 0.249 |
| CGGCTCCA | -0.152 |
| ACCAATTC | 0.0525 |
| CCAGTGCG | -0.207 |
| CATGTTGC | 0.0319 |
| GCATTCCA | -0.0744 |
| AAAACTAA | 0.328 |
| ATGGTGAA | 0.0422 |
| CTGATGCA | 0.0386 |
| ATGAATCC | 0.036 |
| AATATCGA | 0.164 |
| CGCATCCC | -0.239 |
| CTCATATA | 0.0769 |
| GTTAAGTA | 0.113 |
| AAACTATT | 0.189 |
| GATCCGGC | -0.0438 |
| CGCCGGTA | -0.129 |
